Source: article PMC11592671
Residue numbers refer to the chain shown, from its start. Names may count otherwise. These are yes or no findings as the source states them, for the method shown. Binding seen in cells or lysates may run through a third protein. Some results given as binding are weak or reduced against the parent protein; the word gives no strength. Tags and fused reporters may be left off the sequences shown. One block for each binder: values may come before it.

Protein sequences, listed by entry. Tags and fused reporters are not part of them.
UniProt Q8WWY3: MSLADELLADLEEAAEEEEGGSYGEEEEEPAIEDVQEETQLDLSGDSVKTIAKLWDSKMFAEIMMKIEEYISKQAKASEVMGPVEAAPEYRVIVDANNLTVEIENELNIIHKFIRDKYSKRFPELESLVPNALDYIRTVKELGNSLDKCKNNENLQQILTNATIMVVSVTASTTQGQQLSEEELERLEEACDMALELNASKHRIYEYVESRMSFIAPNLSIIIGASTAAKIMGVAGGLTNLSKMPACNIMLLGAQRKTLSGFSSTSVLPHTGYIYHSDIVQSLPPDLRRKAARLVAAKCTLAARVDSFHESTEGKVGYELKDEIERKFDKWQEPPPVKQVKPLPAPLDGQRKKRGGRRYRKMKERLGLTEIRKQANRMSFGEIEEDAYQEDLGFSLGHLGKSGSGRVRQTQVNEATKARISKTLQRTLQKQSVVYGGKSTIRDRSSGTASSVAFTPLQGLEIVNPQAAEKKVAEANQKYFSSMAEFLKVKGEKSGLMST

How the values were obtained:
[1] = molecular target: eCFP-PRPF31 (splicing factor PRPF31) (UniProt Q8WWY3); assay: FRET or BRET; FRET acceptor photobleaching in the nucleus of fixed, co-transfected HeLa cells; eCFP donor, eYFP acceptor; FRET efficiencies normalized to 1 by the positive control eCFP-c-eYFP
[2] = molecular target: T1, harmonin-eCFP (USH1C protein harmonin) (UniProt Q9Y6N9); assay: as above
T1 sequence: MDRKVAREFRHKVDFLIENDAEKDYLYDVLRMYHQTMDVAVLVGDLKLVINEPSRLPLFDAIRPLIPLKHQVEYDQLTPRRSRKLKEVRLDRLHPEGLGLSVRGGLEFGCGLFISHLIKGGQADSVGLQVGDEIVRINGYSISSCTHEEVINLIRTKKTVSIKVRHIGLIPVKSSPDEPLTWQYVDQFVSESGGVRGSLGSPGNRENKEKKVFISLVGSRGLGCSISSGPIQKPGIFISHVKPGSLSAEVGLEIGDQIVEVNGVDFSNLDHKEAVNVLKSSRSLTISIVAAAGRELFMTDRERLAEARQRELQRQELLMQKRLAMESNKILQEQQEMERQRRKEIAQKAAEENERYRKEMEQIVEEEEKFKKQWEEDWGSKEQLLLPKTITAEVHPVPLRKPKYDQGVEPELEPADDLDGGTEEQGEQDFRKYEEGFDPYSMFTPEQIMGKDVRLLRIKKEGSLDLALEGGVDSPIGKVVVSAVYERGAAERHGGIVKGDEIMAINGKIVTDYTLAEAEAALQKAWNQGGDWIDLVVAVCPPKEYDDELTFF

B3: eYFP-SANS-K213E (ΔNLS_1^213–224) (protein, UniProt Q495M9 1-461)
chain: MNDQYHRAARDGYLELLKEATRKELNAPDEDGMTPTLWAAYHGNLESLRLIVSRGGDPDKCDIWGNTPLHLAASNGHLHCLSFLVSFGANIWCLDNDYHTPLDMAAMKGHMECVRYLDSIAAKQSSLNPKLVGKLKDKAFREAERRIRECAKLQRRHHERMERRYRRELAERSDTLSFSSLTSSTLSRRLQHLALGSHLPYSQATLHGTARGETKMQKKLERRKQGGEGTFKVSEDGRKSARSLSGLQLGSDVMFVRQGTYANPKEWGRAPLRDMFLSDEDSVSRATLAAEPAHSEVSTDSGHDSLFTRPGLGTMVFRRNYLSSGLHGLGREDGGLDGVGAPRGRLQSSPSLDDDSLGSANSLQDRSCGEELPWDELDLGLDEDLEPETSPLETFLASLHMEDFAALLRQEKIDLEALMLCSDLDLRSISVPLGPRKKILGAVRRRRQAMERPPALEDTEL
binding [2]: binds

B4: eYFP-SANS-L195E (ΔNES_1^181–195) (protein, UniProt Q495M9 1-461)
chain: B3 chain with L195E, E213K
binding [1]: binds
binding [2]: binds

Second part, the binder after the results:

binding [1]: no binding
binding [2]: binds
B1: eYFP-ANKS4B (ankyrin repeat and SAM domain-containing protein 4B) (protein, UniProt Q8N8V4 1-417)
chain: MSTRYHQAASDSYLELLKEATKRDLNLSDEDGMTPTLLAAYHGNLEALEIICSRGGDPDRCDIWGNTPLHFAASNGHAHCVSFLVNFGANIFALDNDLQTPLDAAASREQNECVALLDKAATAQNIMNPKKVTRLKEQAQKNARRQIKECERLQEKHQNKMAHTYSKEESGTLSSSKGTFSRSSPSNASAPGTFGSLSKGIKDTFKIKFKKNKDTAEQVGKEGRSGQRNVMEVFREEEEDSFSGDFKEKLQLSAEEDGSVHHESILNRPGLGSIVFRRNRISSPEDISDSKREFGFKLPSELLQRQGASEADEGAADEEGEENGLKDDLPWDDDEVEWEEDVVDATPLEVFLLSQHLEEFLPIFKREQIDLEALLLCSDEDLQSIQMQLGPRKKVLNAINRRKQVLQQPGQLVDTSL

binding [1]: binds
binding [2]: binds
B2: eYFP-SANS (scaffold protein containing ankyrin repeats and SAM domain, USH1G protein), wild type (protein, UniProt Q495M9 1-461)
chain: B3 chain with E213K
